In PubChem BioAssay AID493208 (National Center for Advancing Translational Sciences (NCATS), 2011):
The whole screen tested about 44,000 compounds, of which about 340 (0.77%) were called active. About 5% were inconclusive and are not listed. Calls follow the shape of the dose curve; as a rule, active = well fitted inhibition curve with a large enough effect; inconclusive = small, poorly fitted or top-dose-only effect; inactive = flat fitted curve, though single readings scatter. The list shows a part of the results.

Assay: Acumen qHTS Assay for Inhibitors of the mTORC1 Signaling Pathway in MEF (Tsc2-/-, p53-/-) Cells: Sytravon;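 also: plate controls were DMSO for no effect and rapamycin for full effect; nearly all actives have a fitted effect of over 50% in size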
Conditions: phospho-rpS6 immunofluorescence/PI, 24 h; series mostly up to 38.3 µM; activity change, negative = inhibition: at the top concentration
Method in brief: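 Immunofluorescence of rpS6 phosphorylation in Tsc2-/-, p53-/- MEFs after 24 h compound exposure, normalized to propidium iodide signal. Activity is expressed as % positive cells, thresholded with 7.5 nM rapamycin.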

Activity change, negative = inhibition, inactive:
O=C(Cn1c(-c2cccs2)cc2cc(F)ccc21)N1CCCCC1 -11.5%, COc1cccc(C(=O)Nc2c3c(nn2-c2ccc(C)cc2C)CS(=O)(=O)C3)c1OC 0%, COc1ccc(CNC(=O)Cn2ncc3c(=O)oc4ccc(C)cc4c32)c(OC)c1 -8.23%, Cc1cc(=O)n2[nH]c(NC(=O)c3cccc(Cl)c3)nc2n1 -6.19%, Cc1c(C(=O)NCc2ccc(OC(C)C)cc2)sc2ncnc(N(C)C3CCCCC3)c12 0.379%, CC1=Nc2cc(C(=O)N3CCCCC3)ccc2Sc2ccc(C)cc21 -4.05%, COc1ccccc1CCNC(=O)CCCn1c(=O)c2cccn2c2cccnc21 1.46%, COc1ccc(-c2nc(CN3CCC(C(=O)NCc4ccc(F)cc4)CC3)c(C)o2)cc1OC -9.06%, CCCC(=O)Nc1nnc(SCc2cc(=O)n3cccc(C)c3n2)s1 -4.62%, CCOC(=O)c1c(C)oc2nc(C)nc(N3CCN(c4cccc(C(F)(F)F)c4)CC3)c12 -5.8%, COc1ccc(C2CC(=O)N(CC(=O)Nc3ccc(C(C)=O)cc3)c3ccccc3S2)cc1OC (configuration not stated) -10.4%, CCCN(CCC)CCNC(=O)c1nn(C)c2c1CS(=O)(=O)c1ccccc1-2 6.53%, COc1ccc(CCC(=O)NC2CC(=O)N(c3ccccc3)C2)cc1 (configuration not stated) -5.71%, CCOC(=O)c1c(NC(=O)/C=C/c2ccc(Cl)cc2)sc2c1CCC(C)C2 (configuration not stated) -5.34%, Cc1ccccc1C(=O)n1nc(-c2ccco2)nc1NCc1cccs1 1.48%, COc1cc(Cl)c(C)cc1NC(=O)c1nn(C)c2c1CSc1ccccc1-2 1.77%, COc1ccc(CNC(=O)c2cc(-c3ccc(Cl)cc3)n[nH]2)cc1 -7.39%, O=C(NCc1nc(-c2ccccc2)no1)c1ccco1 -0.314%, CCn1cc(C(=O)NCCc2ccccc2)c(=O)c2cc(S(=O)(=O)N3CCc4ccccc4C3)ccc21 -1.14%, CCCN(CCC)CCCNC(=O)c1cn(C)c2ccc(S(=O)(=O)N3CCOCC3)cc2c1=O -7.39%, O=S(=O)(NCCc1csc2nc(-c3ccc(Cl)cc3)nn12)c1ccc2c(c1)OCCO2 -1.04%, COC(=O)c1ccc2c(=O)n(CCCCCC(=O)NCc3ccc(OC)cc3)c(=O)[nH]c2c1 -6.64%, COc1ccc(-c2cc(C)no2)cc1S(=O)(=O)N1CCOc2ccc(Cl)cc21 9.17%, CC(C)c1ccc(NC(=O)CN2C(=O)COc3ccc(S(=O)(=O)N4CCOCC4)cc32)cc1 -10.1%, COc1ccc(CCNc2nc(SCc3cccc(F)c3)nc3ccccc23)cc1OC 0.815%, CCC(C)NC(=O)CN1C(=O)c2cccnc2Oc2ccc(C)cc21 (configuration not stated) -3.34%, O=C(CSc1nccn1Cc1ccc(Cl)cc1)Nc1ccc2c(c1)OCO2 -6.43%
